# Several values for one entry are separate records, joined by “and”; a condition that tells them apart may be missing. Equal entries are not always repeated. The shares of active, inactive and inconclusive entries below differ from those in the screen. For some of these results: Potencies of inconclusive entries are left out as doubtful fits. Activity calls are given as the source filed them. Unless noted, calls come from the whole dose curve; as a rule, active = well fitted curve in the direction sought with a large enough effect in the repeat runs; inconclusive = weak or mixed curves; inactive = no such curve, though single readings can be large; an effect the other way counts as inactive or inconclusive.
# Assays:
# [1] = qHTS assay to identify small molecule antagonists of the thyroid receptor (TR) signaling pathway (AID 743065); note: % is set by controls: 0 for no effect and ±100 for the full control effect; nearly all actives have a fitted effect of over 55% in size
# How it was run: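 GH3.TRE-Luc rat pituitary cells (two TREs driving luciferase) were dosed with compound, then stimulated with 1 nM T3 (final) for 23.5 h at 37 C. ONE-Glo luminescence was the read-out, with CellTiter-Fluor fluorescence as the cytotoxicity counter-screen.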
# [2] = target: Bile acid receptor (Homo sapiens) (UniProt Q96RI1); assay: qHTS assay to identify small molecule antagonists of the farnesoid-X-receptor (FXR) signaling pathway (AID 743217; active = well fitted inhibition curve with a large enough effect in the signal ratio in the repeat runs, not every such curve was filed as active; inconclusive = weak or mixed curves, or effect the other way; inactive = no such curve, though single readings can be large or run the other way; the % refers to the signal ratio; note: % is set by controls: 0 for no effect and ±100 for the full control effect); details: HEK293T FXR-UAS-bla, beta-lactamase ratio, CDCA-stimulated, 16 h; activity change, negative = inhibition: at 62.6 µM (top of the series) unless noted
# Chain of UniProt Q96RI1 (Q96RI1 whole entry, looked up): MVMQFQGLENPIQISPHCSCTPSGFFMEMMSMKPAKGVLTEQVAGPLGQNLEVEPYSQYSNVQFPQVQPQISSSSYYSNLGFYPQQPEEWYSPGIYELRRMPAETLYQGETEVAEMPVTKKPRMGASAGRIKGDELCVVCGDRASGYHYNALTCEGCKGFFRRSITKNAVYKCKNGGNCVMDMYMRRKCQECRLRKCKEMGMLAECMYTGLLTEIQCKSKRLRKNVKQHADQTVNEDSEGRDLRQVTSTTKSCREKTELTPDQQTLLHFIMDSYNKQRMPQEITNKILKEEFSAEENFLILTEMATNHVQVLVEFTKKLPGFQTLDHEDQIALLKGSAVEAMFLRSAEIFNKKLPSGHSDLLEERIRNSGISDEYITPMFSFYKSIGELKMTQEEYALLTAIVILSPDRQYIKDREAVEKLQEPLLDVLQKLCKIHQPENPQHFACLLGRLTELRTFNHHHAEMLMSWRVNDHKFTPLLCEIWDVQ
# How it was run: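 Beta-lactamase reporter under UAS control in HEK 293T cells; compound exposure 16 h at 37 °C in the presence of chenodeoxycholic acid (50 uM final); signal from B/G FRET substrate after 2 h at room temperature.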
# [3] = A CellTox Green Cytotoxicity Assay to monitor cytotoxicity in HEK293 cells - 40 hour (AID 1224871); note: nearly all actives have a fitted effect of over 45% in size; note: potency is the fitted concentration of half-maximal effect; for cytotoxicity increase: % is set by controls: 0 for no effect and ±100 for the full control effect
# How it was run: (§1)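 Each value comes from one timepoint of a single continuous run in which HEK293 cells with CellTox Green were exposed to compound for up to 40 h at 37 C, dye fluorescence rising with cell death.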
# [4] = target: Cytochrome P450 3A4 (Homo sapiens) (UniProt P08684); assay: Cytochrome P450 Family 3 Subfamily A Member 4 (CYP3A4) small molecule antagonists: luciferase reporter qHTS assay (AID 1671201); note: nearly all actives have a fitted effect of over 50% in size; note: potency is the fitted concentration of half-maximal effect
# Chain of UniProt P08684 (P08684 whole entry, looked up): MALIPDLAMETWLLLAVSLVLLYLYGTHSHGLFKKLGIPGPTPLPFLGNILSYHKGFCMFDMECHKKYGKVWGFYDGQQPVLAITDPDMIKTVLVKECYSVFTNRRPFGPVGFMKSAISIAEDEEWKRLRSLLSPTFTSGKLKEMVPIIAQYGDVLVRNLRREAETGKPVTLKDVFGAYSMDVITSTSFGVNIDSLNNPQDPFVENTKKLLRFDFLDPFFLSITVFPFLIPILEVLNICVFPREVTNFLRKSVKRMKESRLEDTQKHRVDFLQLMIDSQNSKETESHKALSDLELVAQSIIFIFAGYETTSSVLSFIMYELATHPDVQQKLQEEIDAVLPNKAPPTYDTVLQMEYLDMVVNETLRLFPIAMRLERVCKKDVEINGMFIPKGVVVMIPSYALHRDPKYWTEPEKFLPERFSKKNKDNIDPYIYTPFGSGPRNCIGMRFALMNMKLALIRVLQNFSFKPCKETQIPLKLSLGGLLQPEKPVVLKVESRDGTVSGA
# How it was run: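 CYP3A4 activity was followed with a P450-Glo proluciferin substrate. Test compounds in DMSO were preincubated 10 min; NADPH regeneration then ran 1 h, and light output was read 20 min after detection reagent.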
# [5] = A CellTox Green Cytotoxicity Assay to monitor cytotoxicity in HepG2 cells - 8 hour (AID 1224890); note: nearly all actives have a fitted effect of over 45% in size; note: potency is the fitted concentration of half-maximal effect; for cytotoxicity increase: % is set by controls: 0 for no effect and ±100 for the full control effect
# How it was run: (§2)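 Continuous culture of HepG2 cells with a membrane-impermeant DNA dye; rising fluorescence marks dead cells. Compound exposure lasted up to 40 h at 37 C, with reads every 8 h from 0 h.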
# [6] = qHTS RealTime-Glo MT Cell Viability Assay in HEK293 cells - 40 hour (AID 1224874); details: RealTime-Glo luminescence; max response: active compounds read low; note: nearly all actives have a fitted effect of over 50% in size; note: potency is the fitted concentration of half-maximal effect
# How it was run: (§3)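 qHTS format; HEK293 cells with NanoLuc/prosubstrate reagent, 37 C/5% CO2 for 5 h pre-dosing; compounds 23 nL in DMSO; luminescence at each time point reflects viable cells.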
# [7] = A CellTox Green Cytotoxicity Assay to monitor cytotoxicity in HepG2 cells - 24 hour (AID 1224878); note: nearly all actives have a fitted effect of over 45% in size; note: potency is the fitted concentration of half-maximal effect
# How it was run: as §2
# [8] = qHTS RealTime-Glo MT Cell Viability Assay in HEK293 cells - 24 hour (AID 1224886); note: nearly all actives have a fitted effect of over 50% in size; note: potency is the fitted concentration of half-maximal effect
# How it was run: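 Viability tracked continuously by luminescence as live cells reduce a prosubstrate for NanoLuc; HEK293 cells preincubated 5 h, compound-treated at 37 C, and read at 0, 8, 16, 24, 32 and 40 h.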
# [9] = qHTS RealTime-Glo MT Cell Viability Assay in HEK293 cells - 8 hour (AID 1224887); note: nearly all actives have a fitted effect of over 50% in size; note: potency is the fitted concentration of half-maximal effect
# How it was run: as §3
# [10] = A CellTox Green Cytotoxicity Assay to monitor cytotoxicity in HEK293 cells - 32 hour (AID 1224881); note: potency is the fitted concentration of half-maximal effect; nearly all actives have a fitted effect of over 40% in size
# How it was run: as §1
# [11] = target: Thyrotropin receptor (Homo sapiens) (UniProt P16473); assay: qHTS assay to identify small molecule antagonists of the thyroid stimulating hormone receptor (TSHR) signaling pathway (AID 1259385; calls by dose curve; note: nearly all actives have a fitted effect of over 20% in size; note: potency is the fitted concentration of half-maximal effect); details: TSHR-HEK293 cAMP HTRF, TSH-stimulated antagonist mode; activity change, negative = inhibition: at 92.4 µM (top of the series) unless noted
# Chain of UniProt P16473 (P16473 whole entry, looked up): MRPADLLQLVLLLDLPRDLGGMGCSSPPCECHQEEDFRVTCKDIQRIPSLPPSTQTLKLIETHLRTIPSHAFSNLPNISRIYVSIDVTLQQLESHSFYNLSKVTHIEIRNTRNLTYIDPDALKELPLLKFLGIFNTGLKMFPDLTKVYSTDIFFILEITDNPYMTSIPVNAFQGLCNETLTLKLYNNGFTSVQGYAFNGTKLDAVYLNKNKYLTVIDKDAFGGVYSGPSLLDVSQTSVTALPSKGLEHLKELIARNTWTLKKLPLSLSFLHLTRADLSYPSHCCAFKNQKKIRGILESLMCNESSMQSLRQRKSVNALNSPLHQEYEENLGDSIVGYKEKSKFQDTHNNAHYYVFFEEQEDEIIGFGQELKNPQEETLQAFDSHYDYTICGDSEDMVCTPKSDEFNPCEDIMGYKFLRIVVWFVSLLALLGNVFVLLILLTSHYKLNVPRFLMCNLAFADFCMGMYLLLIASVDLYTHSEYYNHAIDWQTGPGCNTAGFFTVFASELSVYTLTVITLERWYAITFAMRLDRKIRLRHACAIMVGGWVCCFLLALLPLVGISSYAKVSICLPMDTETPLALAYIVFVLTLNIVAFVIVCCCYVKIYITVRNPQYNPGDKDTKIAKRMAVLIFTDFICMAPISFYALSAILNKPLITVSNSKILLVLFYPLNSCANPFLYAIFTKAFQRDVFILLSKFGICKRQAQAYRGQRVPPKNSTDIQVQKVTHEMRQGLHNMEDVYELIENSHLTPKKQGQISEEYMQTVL
# How it was run: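 TSHR-HEK293 cells (800/well) plated 18 h, then compounds with Ro20-1724 and TSH at 1.5 ng/mL final, 30 min at room temperature. cAMP quantified by HTRF (cAMP-d2/anti-cAMP-cryptate, 1 h); 15 concentrations in triplicate.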
# [12] = A CellTox Green Cytotoxicity Assay to monitor cytotoxicity in HEK293 cells - 8 hour (AID 1224884); note: nearly all actives have a fitted effect of over 35% in size; note: potency is the fitted concentration of half-maximal effect
# How it was run: as §1
# [13] = qHTS assay to identify small molecule antagonists of the estrogen receptor beta (ER-beta) signaling pathway - cell viability counter screen (AID 1259382);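 note: HEK293T cells carrying ER-beta-UAS-bla reporter stimulated with estradiol; % is set by controls: 0 for no effect and ±100 for the full control effect; nearly all actives have a fitted effect of over 55% in size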
# How it was run: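 Tox21 10K library tested in qHTS format on ER-beta-bla HEK293T cells stimulated with 1nM E2; 16 hr treatment at 37C. Same-well CellTiter-Glo luminescence served as the cell viability measure.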
# [14] = qHTS assay to identify small molecule that activate the aryl hydrocarbon receptor (AhR) signaling pathway - cell viability counter screen (AID 743086);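 note: HepG2 liver cells carrying the AhR DRE luciferase reporter; % is set by controls: 0 for no effect and ±100 for the full control effect; nearly all actives have a fitted effect of over 45% in size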
# How it was run: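 HepG2-AhR-luc (HG2L7.5c1) cells, 4000/well, treated 24 h at 37 C with compound; viability measured as CellTiter-Fluor fluorescence after 30 min in the same wells as the luciferase read.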
# [15] = qHTS assay for small molecule activators of the heat shock response signaling pathway (AID 743210; active = well fitted activation curve with a large enough effect in the signal ratio in the repeat runs, with a control signal flat, not every such curve was filed as active; inconclusive = weak or mixed curves; the % refers to the signal ratio; note: % is set by controls: 0 for no effect and ±100 for the full control effect); details: HeLa HSE-bla reporter, beta-lactamase ratio, 5 h; activation: at 62.6 µM (top of the series) unless noted
# How it was run: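 HSE-bla HeLa cells (beta-lactamase reporter under heat shock response elements), plated overnight, then exposed to compounds 5 h at 37 C; LiveBLAzer B/G FRET substrate added, 2.5 h at room temperature, fluorescence intensity read.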
# [16] = A CellTox Green Cytotoxicity Assay to monitor cytotoxicity in HepG2 cells - 32 hour (AID 1224883); note: nearly all actives have a fitted effect of over 50% in size; note: potency is the fitted concentration of half-maximal effect
# How it was run: as §2
# [17] = target: Nuclear receptor subfamily 1 group I member 2 (Homo sapiens) (UniProt O75469); assay: Human pregnane X receptor (PXR) small molecule agonists, qHTS assay (AID 1346982); note: nearly all actives have a fitted effect of over 35% in size; note: potency is the fitted concentration of half-maximal effect
# Chain of UniProt O75469 (O75469 whole entry, looked up): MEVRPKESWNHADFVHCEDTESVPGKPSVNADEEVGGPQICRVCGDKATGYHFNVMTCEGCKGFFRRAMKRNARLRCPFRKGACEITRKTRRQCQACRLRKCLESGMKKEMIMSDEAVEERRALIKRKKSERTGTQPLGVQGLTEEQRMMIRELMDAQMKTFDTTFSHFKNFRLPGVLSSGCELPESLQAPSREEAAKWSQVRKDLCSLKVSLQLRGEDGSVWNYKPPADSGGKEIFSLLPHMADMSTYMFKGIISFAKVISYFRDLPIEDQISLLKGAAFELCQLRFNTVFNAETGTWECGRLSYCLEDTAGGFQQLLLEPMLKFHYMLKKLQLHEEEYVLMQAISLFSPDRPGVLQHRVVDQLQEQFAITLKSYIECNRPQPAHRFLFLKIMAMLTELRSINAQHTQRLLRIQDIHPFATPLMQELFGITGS
# How it was run: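 Luminescence (ONE-Glo, 30 min RT) after 24 hr compound exposure of PXR-Luc HepG2 cells; cells rested 5 hr post-plating in 5% charcoal-stripped FBS medium.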
# [18] = target: Voltage-gated inwardly rectifying potassium channel KCNH2 (Homo sapiens) (UniProt Q12809); assay: Human Ether-a-go-go-Related Gene (hERG) channel small molecule antagonists: fluorescence cell-based qHTS assay (AID 1671200); note: nearly all actives have a fitted effect of over 50% in size; note: potency is the fitted concentration of half-maximal effect
# Chain of UniProt Q12809 (Q12809 whole entry, looked up): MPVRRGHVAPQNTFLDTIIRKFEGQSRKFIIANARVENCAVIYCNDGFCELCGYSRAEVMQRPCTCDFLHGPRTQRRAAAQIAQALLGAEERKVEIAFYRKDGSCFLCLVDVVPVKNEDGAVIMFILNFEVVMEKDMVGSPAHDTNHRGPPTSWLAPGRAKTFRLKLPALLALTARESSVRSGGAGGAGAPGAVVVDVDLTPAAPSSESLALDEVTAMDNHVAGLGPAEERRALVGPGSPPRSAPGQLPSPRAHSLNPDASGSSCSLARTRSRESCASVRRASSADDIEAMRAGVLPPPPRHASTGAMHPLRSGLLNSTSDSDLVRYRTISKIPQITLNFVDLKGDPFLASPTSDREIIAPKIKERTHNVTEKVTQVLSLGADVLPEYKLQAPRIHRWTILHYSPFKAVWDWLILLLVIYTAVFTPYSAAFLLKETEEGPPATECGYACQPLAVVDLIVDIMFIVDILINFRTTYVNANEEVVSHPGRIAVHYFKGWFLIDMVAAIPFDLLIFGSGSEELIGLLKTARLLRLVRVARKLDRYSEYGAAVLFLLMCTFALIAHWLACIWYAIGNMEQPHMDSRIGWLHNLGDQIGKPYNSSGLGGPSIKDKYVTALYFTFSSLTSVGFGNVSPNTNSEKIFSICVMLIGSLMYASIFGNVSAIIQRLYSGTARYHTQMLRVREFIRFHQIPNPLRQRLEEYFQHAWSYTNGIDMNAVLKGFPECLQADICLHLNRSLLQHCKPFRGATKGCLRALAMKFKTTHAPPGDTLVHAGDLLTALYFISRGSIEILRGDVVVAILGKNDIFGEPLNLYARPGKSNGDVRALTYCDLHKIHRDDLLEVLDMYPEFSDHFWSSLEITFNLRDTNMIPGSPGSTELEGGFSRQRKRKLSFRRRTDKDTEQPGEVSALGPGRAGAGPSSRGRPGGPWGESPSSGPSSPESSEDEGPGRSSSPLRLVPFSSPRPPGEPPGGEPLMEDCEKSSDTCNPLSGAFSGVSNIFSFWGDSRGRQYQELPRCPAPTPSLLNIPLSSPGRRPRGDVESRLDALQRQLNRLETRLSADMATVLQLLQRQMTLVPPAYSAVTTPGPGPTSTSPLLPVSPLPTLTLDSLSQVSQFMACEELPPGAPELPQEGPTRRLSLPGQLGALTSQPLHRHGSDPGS
# How it was run: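 In this thallium-flux screen, overnight-cultured U2OS cells bearing the channel are dye-loaded in darkness for an hour, rested 10 min at room temperature, and then monitored kinetically at 480/540 nm for two minutes post-stimulus.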
# [19] = qHTS assay to identify aromatase inhibitors - cell viability counter screen (AID 743084); details: MCF-7 aro ERE viability, CellTiter-Fluor, 24 h; activity change, negative = cytotoxicity: at 70.3 µM (top of the series) unless noted;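 note: cells stimulated with testosterone during compound exposure; % is set by controls: 0 for no effect and ±100 for the full control effect; nearly all actives have a fitted effect of over 55% in size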
# [20] = Caspase-3/7 induction in CHO-K1 cells by small molecules, qHTS cell viability counter screen (AID 1346979); note: nearly all actives have a fitted effect of over 35% in size; note: potency is the fitted concentration of half-maximal effect
# How it was run: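 Following a 5hr settling period, CHO-K1 cells at 1,500 per well received DMSO-dissolved compounds. Cell viability was quantified 16hr later by CellTiter-Fluor fluorescence, measured after 1hr with reagent at 37C.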
# Tags give direction and shape of the fitted curve.
structure (smiles),measurement,setting,value
CNC(=O)[C@H]1O[C@@H](n2cnc3c(NCc4cc(Cl)ccc4OCc4cc(C)no4)ncnc32)[C@H](O)[C@@H]1N,Potency,[1],inactive
same,Potency,[2],inactive
same,Potency,[3],inactive
same,Potency,[4],"inconclusive [inhibitor, partial curve]"
Cn1cc(S(C)=O)c(=O)c2ccc(F)cc21 (stereo unspecified),Potency,[3],inactive
CC(C)=CCCC(C)CCOC(=O)C(C)C (stereo unspecified),Potency,[5],inactive
same,Potency,[4],"inconclusive [inhibitor, partial curve, poor fit]"
CC(O)COC(C)(C)C (stereo unspecified),Potency,[4],inactive
O=C(OOC(=O)c1ccccc1)c1ccccc1,Potency,[3],inactive
same,Potency,[6],"inconclusive [cytotoxic, single point]"
same,Potency,[7],inactive
same,Potency,[8],"inconclusive [cytotoxic, single point]"
same,Potency,[9],"inconclusive [cytotoxic, single point]"
CCCCS,Potency,[3],"inconclusive [activator, single point]"
same,Potency,[10],"inconclusive [activator, single point]"
same,Potency,[11],"inconclusive [falling, single point]"
same,Potency,[4],inactive
C[Si](C)(C)N[Si](C)(C)C,Potency,[3],inactive
same,Potency,[12],inactive
same,Potency,[4],"inconclusive [inhibitor, partial curve]"
CCN(CC)S(=O)(=O)c1ccc(C(=O)O)cc1,Potency,[3],"inconclusive [activator, single point]"
same,Potency,[10],"inconclusive [activator, single point]"
same,Potency,[12],"inconclusive [activator, single point]"
same,Potency,[8],"inconclusive [rising, single point]"
same,Potency,[9],"inconclusive [rising, single point]"
CC/C=C\C#N,Potency,[3],inactive
same,Potency,[13],inactive
O=C(Cn1ccnc1[N+](=O)[O-])NCc1ccccc1,Potency,[14],inactive
O=C1NC(c2ccccc2)(c2ccccc2)C(=O)N1COP(=O)(O)O,Potency,[15],inactive
same,"activity change, negative = inhibition",[2],inconclusive: 16.7%
CC1=CC[C@H](CC=O)C1(C)C,Potency,[15],inactive
same,Potency,[11],inactive
C/C(=N\[Si](C)(C)C)O[Si](C)(C)C,max response,[6],inactive: -1.35%
same,Potency,[13],inactive
O=C(O)CCCCCCCCC(=O)O,max response,[6],inactive: 1.05% and inactive: 1.59%
same,Potency,[16],inactive
CC(=O)OCC(=O)[C@@]1(O)CCC2C3CCC4=CC(=O)CC[C@]4(C)C3[C@@H](O)C[C@@]21C (stereo partly specified),max response,[6],inactive: -13.4%
CCc1cccc(CC)c1N,max response,[6],inactive: 1.74% and inactive: 8.01%
same,Potency,[16],inactive
same,Potency,[9],inactive
same,Potency,[13],inactive
O=P(O)(O)OP(=O)(O)O,Potency,[9],inactive
same,Potency,[11],"inconclusive [rising, full curve, poor fit]"
CCOc1ccccc1OCCN[C@H](C)Cc1ccc(OC)c(S(N)(=O)=O)c1,Potency,[3],inactive
same,Potency,[17],active: 26.6 µM
same,Potency,[18],active: 21.3 µM
C[C@H](O)C(=O)Nc1c(I)c(C(=O)NC(CO)CO)c(I)c(C(=O)NC(CO)CO)c1I,Potency,[3],inactive
Cc1cc(N)no1,max response,[6],inactive: 13.5%
same,Potency,[8],inactive
CN(C)CCCN(C)C,Potency,[16],"inconclusive [activator, single point]"
same,cytotoxicity increase,[5],inactive: -9.61% [at 6.97 µM]
same,"activity change, negative = inhibition",[11],inactive: 4.29% [at 8.39 µM]
same,"activity change, negative = inhibition",[18],inactive: 0.578% [at 6.97 µM]
CC(C)=CCCC(C)CC=O (stereo unspecified),Potency,[3],inactive
same,Potency,[18],inactive
NC(=O)c1c(Cl)cccc1Cl,Potency,[17],active: 0.0611 µM
same,Potency,[4],active: 31.7 µM
C/C=C/c1ccc(OC)c(OC)c1,Potency,[6],"inconclusive [cytotoxic, partial curve, poor fit]"
c1ccc2nccnc2c1,Potency,[19],inactive
same,Potency,[8],inactive
same,Potency,[20],inactive
CCCCO,Potency,[2],inactive
same,Potency,[11],inactive
CCCC(C)C(O)CC (stereo unspecified),max response,[6],inactive: 14.3%
same,Potency,[12],"inconclusive [activator, partial curve]"
CO/N=C(/C(=O)N[C@@H]1C(=O)N2C(C(=O)[O-])=C(C[n+]3ccn4ncccc43)CS[C@H]12)c1nsc(N)n1,Potency,[18],inactive
CC(=O)NCc1c(I)c(NC(C)=O)c(I)c(C(=O)O)c1I,Potency,[7],"inconclusive [activator, single point]"
same,Potency,[16],"inconclusive [activator, single point]"
same,Potency,[5],"inconclusive [activator, single point]"
same,Potency,[20],"inconclusive [rising, partial curve]"
same,Potency,[17],inactive
Cc1[nH]c(=O)c(C#N)cc1-c1ccc2nccn2c1,Potency,[17],inactive
same,Potency,[18],inactive
CCCCCNCCCCC,Potency,[17],"inconclusive [activator, single point]"
O=C(O)CCC(=O)Nc1ccc(S(=O)(=O)Nc2nccs2)cc1,Potency,[2],inactive
same,Potency,[7],"inconclusive [activator, single point]"
same,Potency,[5],"inconclusive [activator, single point]"
COc1cc(C(=O)OC(COCCC(C)C)CN2CCOCC2)cc(OC)c1OC (stereo unspecified),Potency,[9],inactive
same,Potency,[17],"inconclusive [activator, partial curve]"
C=C(C)[C@@H]1CC=C(C)C(=O)C1,Potency,[1],inactive
same,max response,[6],inactive: -8.2%
CN(C)CCN(Cc1ccsc1)c1ccccn1,Potency,[17],inactive
CC(C)(CO)CO,Potency,[12],inactive
same,Potency,[4],inactive
C=COCC1CCC(COC=C)CC1 (stereo unspecified),Potency,[7],"inconclusive [activator, single point]"
same,Potency,[9],"inconclusive [cytotoxic, single point]"
C[C@H]1C[C@H]2[C@@H]3CCC4=CC(=O)C=C[C@]4(C)[C@@]3(F)[C@@H](O)C[C@]2(C)[C@@]1(O)C(=O)CO,Potency,[1],inactive
same,Potency,[3],inactive
O=S(O)(O)=S,activation,[15],inactive: -0.665% [at 5.95 µM]
same,cytotoxicity,[7],inactive: -1.5% [at 6.97 µM]
CCCCC(C)C(=O)O (stereo unspecified),Potency,[7],"inconclusive [activator, single point]"
same,Potency,[5],"inconclusive [activator, single point]"
same,Potency,[20],inactive
same,Potency,[17],inactive
Cc1cccc(N(C)C)c1,Potency,[9],inactive
same,Potency,[13],inactive
CC12CCC(C(=O)C1=O)C2(C)C (stereo unspecified),Potency,[15],inactive
same,Potency,[2],inactive
same,Potency,[7],inactive
CC(C)NCC(O)COc1ccc(CC(N)=O)cc1 (stereo unspecified),Potency,[19],inactive
COc1cc(O)cc(O)c1,Potency,[16],inactive
CCn1cc(C(=O)O)c(=O)c2cc3c(cc21)OCO3,Potency,[15],inactive
same,Potency,[16],inactive
Nc1ccc(/C=C/c2ccc(N)cc2S(=O)(=O)O)c(S(=O)(=O)O)c1,"activity change, negative = inhibition",[2],inactive: 3.76% [at 0.55 µM]
same,"activity change, negative = cytotoxicity",[20],inactive: 8.5% [at 0.349 µM]
same,"activity change, negative = inhibition",[18],inactive: 0.168% [at 0.29 µM]
